These results are taken from ChEMBL document CHEMBL4888484, “Replenishing the malaria drug discovery pipeline: Screening and hit evaluation of the MMV Hit Generation Library 1 (HGL1) against asexual blood stage Plasmodium falciparum ,using a nano luciferase reporter read-out” (2022).

Where “and” joins values, the source holds several entries; their conditions need not be identical. Equal entries are not always repeated. Screen size: about 150,000 compounds; about 540 (0.36%) showed an effect of 50% or more. The list shows a part of the results.

The experiment concerns Plasmodium falciparum. Put plainly: Primary screen in NF54 nanoGlo assay, in single point, at 2uM, 72h; a lower Z score goes with more inhibition. Type of experiment: functional, Erythrocyte. Conditions: timepoint 72 hour.

What is called % Inhibition is the change of the read-out against control, counted positive when it falls. For `O[C@H]1CCN(c2ccnc(N3CCC4(CCCO4)CC3)n2)C1`, the “% Inhibition” value is recorded as 0% and the Z score stood at 0.06.
For `O=C1C[C@H](c2nc(-c3ccc(Oc4ccccc4)cc3)c[nH]2)CN1` the same measures were 2% and -0.25.
For `Cc1cnn(C2CCCN(C(C)C(=O)Nc3cc(F)ccc3F)C2)c1` (stereo unspecified) the same measures were 4% and -0.72.
For `CC1CC(c2ccccc2)CN1C(=O)NCCc1ccn(C)n1` (stereo unspecified) the same measures were -7% and 0.94.
`O=C(Cc1nnc(-c2cccnc2)[nH]1)NCc1ccccn1`: under “2 µM”, the “% Inhibition” value was -11% and -13%; the Z score is 1.37 and 1.29.
Regarding `CCOC1(C)CCN(c2cc(C(C)C)nc3ncnn23)CC1`, the “% Inhibition” value is listed as -10% and the Z score is listed as 1.25.
Turning to `CNC(=O)CC(=O)N1CCCCC[C@@H]1CC(=O)c1ccccc1`, the “% Inhibition” value was -13% and the Z score was determined as 2.39.
Take `O=C1NCCOc2cc(F)c(Br)cc21`: the “% Inhibition” value is -10% and the Z score was found to be 1.48.
Take `CN(C)C(=O)CS(=O)(=O)c1ccccc1`: the “% Inhibition” value was -1% and the Z score was 0.15.
The matching figures for `COc1cc(S(=O)(=O)NC(C)C)c(S(=O)(=O)NC(C)C)c(OC)c1OC`: -11% and 1.24.
The matching figures for `O=C(Nc1c(-c2ccc(C(F)(F)F)cc2)n[nH]c1C1CC1)c1ccc(F)cc1`: -3% and 0.54.
For `CCCN1C(=O)c2cc(C(=O)Nc3ccc(OC)cc3OC)ccc2[C@H]1Nc1ccc(OC)cc1OC` the same measures were -11% and 1.42.
For `C[C@@H]1Oc2ccc(NC(=O)c3cccc(S(=O)(=O)NCc4ccc5c(c4)OCO5)c3)cc2NC1=O`, the “% Inhibition” value was -2% and the Z score is recorded as 0.33.
For `CCO[C@@H](C)c1nc(CN(C)Cc2ncnn2C)cs1` the same measures were -1% and 0.09.
The matching figures for `CN(C)Cc1cn(C[C@H]2C[C@@H](NC(=O)Nc3ccc4c(c3)OCCO4)[C@H](O)[C@@H]2O)nn1`: 42% and -4.8.
Turning to `COC(=O)NC(N1CCCC1=O)(C(F)(F)F)C(F)(F)F`, the “% Inhibition” value is on record as -11% and the Z score is 1.24.
The matching figures for `CCC(C)(C)c1nnc(NC(=O)CC(C)C)s1`: 6% and -1.01.
The matching figures for `O=C(C[C@H]1CCCN(c2cn[nH]c(=O)c2)C1)NCc1cccc(Cl)c1`: -11% and 1.42.
As for `O=C(N[C@@H]1CN(Cc2cccc(F)c2)CC[C@@H]1CO)c1ccccc1`, the “% Inhibition” value was -16% and the Z score is given as 2.13.
For `CC(C)CCNC(=O)N1CCC[C@H](Oc2nc(C3CC3)nc3c2CCOCC3)C1` the same measures were -8% and 0.76.
Regarding `Cc1cc([C@@H](O)CCNC(=O)c2ccco2)c(C)o1`, the “% Inhibition” value is given as -9% and the Z score amounted to 1.15.
The matching figures for `CCC[C@H](C)NC(=O)c1cc(Cl)ccc1OC`: -7% and 0.92.
As for `O=C1NC[C@@H](C(=O)NCCc2cccc(F)c2F)O1`, the “% Inhibition” value is recorded as -7% and the Z score is listed as 1.08.
For `Nc1ncc(Cl)cc1S(=O)(=O)N1CC2(CCOC2)C1` the same measures were 5% and -0.83.
With `C[C@H](NCc1ncnn1C)c1ccc(F)cc1Cl`, the “% Inhibition” value is given as -6% and the Z score was 0.68.
The matching figures for `CC(C)n1ccnc1C(=O)N1CC[C@H](OC(=O)N(C)C)C1`: -15% and 2.83.
`CC[C@H](Oc1ccc(C)cc1)C(=O)NC`: the “% Inhibition” value was determined as 30% and the Z score is -3.44.
For `CCNC(=O)[C@@H]1CCCN1C(=O)Nc1cc(C(=O)OC)ccc1C` the same measures were -7% and 1.22.
For `c1ccc(-n2ncc3c2CCC[C@@H]3NCc2cc3ccccc3s2)nc1`, the “% Inhibition” value is recorded as -8% and the Z score was 1.42.
For `CCCNC(=O)C(CC)Oc1ccc2c(c1)C(c1ccc(F)cc1)N(C(=O)C1CCCC1)CC2` (stereo unspecified) the same measures were 2% and -0.34.
For `Cc1ccccc1Cn1cnc(CNC(=O)OC(C)(C)C)c1` the same measures were 2% and -0.27.
The matching figures for `C[C@@H](C(=O)NCc1ccccc1)S(=O)(=O)Cc1cc(Cl)c2c(c1)OCCCO2`: -1% and 0.28.
On to `O=C(NS(=O)(=O)c1cccnc1)C1CC1c1cccc(F)c1F` (stereo unspecified), for which the “% Inhibition” value came to 0% and the Z score was determined as 0.
For `NC(=O)c1csc(CNCc2ccc(Cn3cccn3)cc2)c1` the same measures were -10% and 1.39.
For `Cc1cnc(CNC(=O)[C@H]2OCC[C@H]2Cn2cccn2)c(C)c1` the same measures were -17% and 3.09.
As for `CCOc1ccc(NC(=O)CCc2cccc3[nH]ccc23)cc1`, the “% Inhibition” value is given as -1% and the Z score turned out to be 0.16.
Take `CCOC(=O)c1ccc(NC(=O)CC2C(=O)OCC3CCCCN32)cc1` (stereo unspecified): the “% Inhibition” value is listed as -1% and the Z score is 0.22.
For `CC(C)(C)C(NC(=O)CC1CC(=O)NC1=O)C(F)(F)F` (stereo unspecified) the same measures were 4% and -0.68.
As to `O=C(NCCC1CCOCC1)c1ccncc1`, the “% Inhibition” value is reported as -9% and the Z score is 1.86.
Take `CCc1nc(CN(C)Cc2ccon2)no1`: the “% Inhibition” value is recorded as -15% and the Z score is on record as 1.41.
For `CC(C)N1CCNC(=O)[C@@H]1CC(=O)NCc1cn[nH]c1-c1cccs1` the same measures were -18% and 2.39.
Take `O=C(NC1CCN(CC2CC2)CC1)c1cnc(Oc2ccccc2)cn1`: the “% Inhibition” value is -4% and the Z score is 0.69.
The matching figures for `CCCNC(=O)c1nn(-c2cccc(C)c2)c(=O)n(CCC)c1=O`: -11% and 1.07.
Take `O=C(c1cc(OCc2ccccc2)no1)N1CCCCC1`: the “% Inhibition” value is on record as -13% and the Z score was 2.45.
The matching figures for `CN(C)CCNC(=O)C1C(c2cccc(NC(=O)c3ccccc3F)c2)OC(=O)N1Cc1cccc(Cl)c1` (stereo unspecified): -9% and 1.81.
Turning to `O=C(Cc1cccnc1)NC[C@H]1CCCN(C(=O)c2cccc3cc[nH]c23)C1`, the “% Inhibition” value is 2% and the Z score is recorded as -0.37.
As to `CS(=O)(=O)c1ccc(C(=O)N2CC3(CCC3)[C@@H]2C2CC2)s1`, the “% Inhibition” value is given as -9% and the Z score turned out to be 1.72.
For `Cc1ncsc1C(=O)N1CCN(c2ccc(C3CC3)nn2)CC1` the same measures were 14% and -1.84.
For `C=CCN1C[C@H](C)N(C(=O)c2ccnn2C)C[C@@H]1C` the same measures were -8% and 1.36.
Regarding `Cc1cc(C(=O)N2C[C@@H]3CC[C@H]2CN(C(=O)N(C)C)C3)no1`, the “% Inhibition” value was -4% and the Z score is 0.76.
For `CC(C)c1nc(CNc2ccc(C#N)cn2)cs1` the same measures were 14% and -1.64.
The matching figures for `Cc1c(Cl)cccc1NC(=O)CCNCc1ccncc1`: 5% and -0.77.
The matching figures for `C=CCN1CC[C@@]2(CCC1=O)CN(S(=O)(=O)N1CCCC1)CCN2C`: -7% and 0.71.
As for `O=C1CS(=O)(=O)[C@]2(CCS(=O)(=O)C2)N1c1ccccc1`, the “% Inhibition” value is -5% and the Z score is 0.67.
The matching figures for `O=C1[C@@H]2C3CCCN3C3(C(=O)Nc4ccc(Br)cc43)[C@@H]2C(=O)N1CCc1ccccc1` (stereo partly specified): -9% and 1.2.
For `COC(=O)CN1CCN(C(=O)c2cnc(-c3ccccc3)nc2)[C@@H](C)C1=O` the same measures were -2% and 0.33.
For the compound `CN(C(=O)Cn1cc(S(=O)(=O)N2CCOCC2)ccc1=O)c1ccccc1`, the “% Inhibition” value is -6% and the Z score was determined as 1.22.
For `CN(C(=O)[C@@H]1COc2cc(F)ccc2C1)C1(CN)CCC1` the same measures were -10% and 1.24.
Consider `c1cn(-c2cc(-c3noc(-c4ccoc4)n3)ccn2)cn1`, for which the “% Inhibition” value was -4% and the Z score came out at 0.34.
For `CO[C@@H]1COC[C@H]1n1cc(CNS(=O)(=O)CC(C)(C)OC)nn1` the same measures were 9% and -1.07.
The matching figures for `Cc1nc([C@@]2(CC3CC3)CCCN(S(=O)(=O)c3ccccc3Cl)C2)no1`: -6% and 0.8.
In the case of `O=C(COc1cc(Cl)cc(Cl)c1)N[C@@H](Cc1nnc[nH]1)c1ccccc1`, the “% Inhibition” value is -7% and the Z score is 1.06.
For `O=S1(=O)N(Cc2ccccc2Cl)c2ccccc2N1C1CC1` the same measures were -9% and 1.1.
Take `COc1ccc(-c2nn(-c3ccccc3F)cc2CN2CCOCC2)cc1`: the “% Inhibition” value is -19% and the Z score is on record as 3.28.
For `COc1ccc(CCc2n[nH]c(C)c2NC(=O)c2cccc(Cl)c2)cc1` the same measures were -1% and 0.15.
The matching figures for `CCCCCc1nc([C@H](C)N2CCN(C)CC2)n(-c2cc(C)ccn2)n1`: -3% and 0.42.
The matching figures for `Cc1cc(N2CC[C@H](Oc3cncc(Br)c3)C2)ncn1`: -17% and 3.19.
Take `CC(C)[C@@]1(O)CN(C(=O)c2onc3c2CCCC3)C[C@@H]1C`: the “% Inhibition” value is reported as -14% and the Z score turned out to be 2.61.
As to `COc1ccc(-c2ccc(N3CCN(C(=O)CN(Cc4ccccc4)C(=O)NC(C)C)CC3)nn2)cc1OC`, the “% Inhibition” value is recorded as -35% and the Z score stood at 3.1.
For `CCn1cc(C(=O)OC2(C3CC3)CC2)cn1` the same measures were -9% and 1.44.
For `CCCN1CCN(C(=O)c2cc(NC(=O)COC)cc3nc(-c4ccncc4)n(C)c23)CC1` the same measures were 2% and -0.42.
The matching figures for `COCCCn1c(C)c(C)c(S(=O)(=O)c2ccccc2)c1NC(=O)CC(C)C`: -16% and 2.15.
For `CC(C)=CCNC(=O)N[C@H]1CCCOCC1`, the “% Inhibition” value is listed as -9% and the Z score is 0.92.
The matching figures for `CCCc1nc(-c2nc(CCOC)no2)cs1`: -9% and 1.13.
For `Cc1cccc(C(=O)Nc2c(N3CCCCC3)c(-c3cccc(F)c3)nn2C)c1` the same measures were -1% and 0.13.
For `O=C(NC1CC1)c1nn(-c2cccc(Cl)c2)c(=O)n(Cc2cccc(F)c2)c1=O` the same measures were -5% and 0.71.
As for `O=C([C@@H]1CCC(=O)N1S(=O)(=O)c1ccccc1)N1CCc2ccccc2C1`, the “% Inhibition” value is reported as -9% and the Z score turned out to be 1.26.
For the compound `CCCCOc1ccc(C(=O)Nc2ccc(N3CCC(C)CC3)c(C(=O)NCc3ccc(F)cc3)c2)cc1`, the “% Inhibition” value is given as -13% and the Z score was found to be 1.93.
With `CN(c1cncc(C(=O)NCCC2=CCCCC2)c1)S(=O)(=O)c1ccccc1`, the “% Inhibition” value is reported as -9% and the Z score is given as 1.76.
The matching figures for `Cc1nnsc1C(=O)NCCn1ccnc1C1CC1`: 13% and -1.69.
The matching figures for `O=C(Cn1c(=O)ncc2c1cnn2[C@H]1CCS(=O)(=O)C1)N1CCCc2ccccc21`: -9% and 1.21.
The matching figures for `CO[C@@H](C)c1noc(CNc2ccc(F)cc2OCC2CC2)n1`: -13% and 1.87.
Regarding `CCCc1cc(C(=O)N2C[C@H](CO)[C@@H](CO)C2)no1`, the “% Inhibition” value is reported as -14% and the Z score is on record as 1.9.
